Assay results published in the supplement of paper PMC12217912.
Some of the results follow. The full chains were built here from the parent and the listed change. Values near 0.05 are background.

B1: TEV protease; numbered along this chain (parent)
chain: MGESLFKGPRDYNPISSSICHLTNESDGHTTSLYGIGFGPFIITNKHLFRRNNGTLVVQSLHGVFKVKDTTTLQQHLVDGRDMIIIRMPKDFPPFPQKLKFREPQREERICLVTTNFQTKSMSSMVSDTSCTFPSGDGIFWKHWIQTKDGQCGSPLVSTRDGFIVGIHSASNFTNTNNYFTSVPKNFMELLTNQEAQQWVSGWRLNADSVLWGGHKVFMVKPEEPFQPVKEATQL

Variants of: B1
Assay: raw area under fraction-flipped curve 0-4 h after induction (AUC4h, not background-subtracted), DNA-recorder readout of cleavage of the substrate (dimensionless); higher = more cleavage of the substrate by the protease variant
Conditions: temperature: 34 °C; time window: 0-4 h after rhamnose induction
Procedure: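 In vivo DNA recorder in E. coli TOP10(DE3) ΔrhaA at 34 °C. Each TEVp single-site mutant (parent TEVp 0) is paired with a single-site variant of the 7-mer TEVs (canonical ENLYFQ|S). The substrate sits between flexible linkers in a Bxb1-sfGFP-TEVs-SsrA fusion, so cleavage stabilises Bxb1 and speeds flipping of a recombination array, read by NGS. The value is the raw area under the fraction-flipped curve over 0-4 h after rhamnose induction (AUC4h), with ≥20 reads per time point. It is not background-subtracted; inactive controls average about 0.047.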
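Note: Bxb1 expression induced with 0.2% (w/v) L-rhamnose at OD600 near 0.5, cultures sampled hourly, flipped fraction per protease–substrate barcode pair counted by paired-end Illumina sequencing.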

Variant | area with substrate CNLYFQS | area with substrate DNLYFQS | area with substrate FNLYFQS | area with substrate HNLYFQS | area with substrate INLYFQS | area with substrate KNLYFQS | area with substrate LNLYFQS | area with substrate NNLYFQS | area with substrate PNLYFQS | area with substrate QNLYFQS | area with substrate TNLYFQS | area with substrate WNLYFQS | area with substrate RNLYFQS | area with substrate YNLYFQS | area with substrate GNLYFQS | area with substrate MNLYFQS | area with substrate SNLYFQS | area with substrate VNLYFQS
Q97H | 0.0655 | 0.0809 | 0.0458 | 0.0651 | 0.0584 | 0.0623 | 0.0652 | 0.061 | 0.0642 | 0.0706 | 0.0594 | 0.0537 |  |  |  |  |  | 
E231N | 0.0761 | 0.0922 |  | 0.0575 |  | 0.0762 | 0.0712 |  |  | 0.079 |  | 0.0492 | 0.0621 | 0.0719 |  |  |  | 
F163I | 0.049 | 0.0676 |  | 0.0513 |  | 0.0754 |  | 0.0548 |  |  | 0.0603 | 0.0585 |  |  | 0.0495 |  |  | 
P94A | 0.066 | 0.0775 |  | 0.0696 |  | 0.0618 |  |  |  |  | 0.0629 |  |  | 0.0558 |  | 0.138 | 0.0579 | 
D79F | 0.0591 | 0.0959 |  | 0.0611 | 0.0696 |  |  | 0.0913 | 0.0702 |  | 0.0613 | 0.0751 |  | 0.0554 | 0.0718 | 0.071 | 0.0713 | 
V67S | 0.064 | 0.0684 | 0.0585 |  | 0.0598 | 0.0558 | 0.0417 | 0.0529 | 0.0574 |  | 0.0568 | 0.0499 | 0.0472 | 0.0519 | 0.067 | 0.0583 | 0.0698 | 0.0634
S135F | 0.0681 | 0.0577 | 0.0633 | 0.072 | 0.0392 |  | 0.0597 | 0.07 | 0.0478 |  | 0.0641 | 0.0628 | 0.0714 | 0.0595 |  | 0.0589 | 0.0671 | 0.0561
S135K | 0.0667 | 0.0437 |  | 0.0554 | 0.0612 |  |  |  | 0.0661 | 0.0565 | 0.043 | 0.0539 |  | 0.0482 | 0.067 | 0.058 | 0.0688 | 0.0514
D27G | 0.0597 | 0.0616 |  |  | 0.049 | 0.073 | 0.0655 |  |  |  |  | 0.0667 | 0.06 |  |  | 0.0671 |  | 0.0455
Y179S | 0.0519 | 0.0689 |  | 0.0623 |  |  |  | 0.0563 | 0.0551 |  | 0.0644 | 0.0533 | 0.0534 |  | 0.0544 | 0.0471 | 0.0541 | 0.0441
L33R | 0.0567 | 0.0702 |  | 0.0685 |  |  |  | 0.0614 |  |  | 0.0677 | 0.0516 | 0.065 | 0.05 | 0.0571 | 0.0643 | 0.0603 | 
L33Y | 0.0634 | 0.0555 | 0.0445 | 0.0576 |  | 0.0545 | 0.0652 | 0.0693 | 0.0592 |  | 0.061 | 0.0677 | 0.062 | 0.0601 |  | 0.0625 | 0.0514 | 0.0534
K142W | 0.0732 | 0.072 |  |  | 0.067 |  | 0.062 | 0.0815 |  |  |  |  |  | 0.0563 | 0.0699 | 0.0525 | 0.0508 | 
T147M | 0.0443 | 0.0572 |  | 0.0478 |  |  | 0.0858 |  | 0.0649 |  |  | 0.0512 |  |  | 0.0556 |  |  | 
G39F | 0.0454 | 0.0494 | 0.0473 | 0.0438 | 0.0428 | 0.0441 | 0.0443 | 0.0472 | 0.0512 |  | 0.041 | 0.0412 |  | 0.008 | 0.0442 |  | 0.0572 | 
M188N | 0.0771 | 0.0854 |  | 0.0551 |  |  |  |  | 0.077 |  | 0.0512 | 0.0625 |  |  |  | 0.0546 | 0.0563 | 
M188S | 0.0719 | 0.0772 |  | 0.0766 | 0.0715 | 0.0699 | 0.0586 |  | 0.0913 |  | 0.0656 | 0.0565 |  |  |  | 0.0772 | 0.0577 | 
E189G | 0.0444 | 0.0842 | 0.0633 | 0.0639 | 0.058 | 0.0651 | 0.0629 | 0.0704 |  |  | 0.0637 | 0.0556 |  |  | 0.0706 |  |  | 
H21V | 0.0669 | 0.0762 | 0.0308 | 0.0578 | 0.0686 | 0.0647 | 0.0621 |  | 0.0718 | 0.114 | 0.0617 | 0.0552 | 0.0601 |  | 0.0574 | 0.0674 | 0.067 | 0.0516
K98S | 0.0606 | 0.061 | 0.0692 | 0.0555 | 0.0666 | 0.0803 |  | 0.0703 |  |  | 0.0676 | 0.0616 |  | 0.0636 | 0.057 | 0.069 |  | 
K98N | 0.076 | 0.0783 |  | 0.0696 | 0.0692 | 0.0687 | 0.055 | 0.0844 | 0.0623 |  | 0.0675 | 0.0651 |  | 0.0553 | 0.0691 | 0.0565 | 0.0677 | 0.0691
K90G | 0.0716 | 0.086 |  | 0.0391 | 0.088 |  |  |  | 0.0557 |  |  |  |  |  |  | 0.0615 | 0.0469 | 
K90H | 0.0697 | 0.0719 |  | 0.0609 | 0.0595 | 0.0501 | 0.0648 | 0.0583 | 0.0712 |  | 0.0675 | 0.0576 |  | 0.0675 | 0.0641 | 0.0896 | 0.078 | 0.0644
H76W | 0.0608 | 0.0761 |  | 0.0553 |  | 0.0563 | 0.0415 | 0.0793 | 0.052 |  | 0.0887 |  |  |  |  | 0.0578 |  | 
C20W | 0.0542 | 0.048 |  | 0.0486 | 0.0496 |  | 0.0538 | 0.057 | 0.0487 | 0.0365 | 0.047 | 0.051 |  | 0.0426 | 0.0585 |  | 0.0633 | 
T174S | 0.0715 | 0.106 |  |  |  | 0.0582 |  |  | 0.0339 | 0.0609 | 0.0822 |  |  | 0 |  |  | 0.0734 | 
L73Q | 0.053 | 0.0597 |  | 0.0559 | 0.0429 | 0.0284 |  | 0.0574 | 0.0428 | 0.0527 | 0.0531 | 0.05 | 0.0515 | 0.0497 | 0.0499 | 0.0539 | 0.0626 | 
Y12M | 0.0705 | 0.0768 | 0.0555 | 0.0531 | 0.0587 | 0.0676 | 0.0591 |  | 0.0491 |  | 0.052 | 0.0476 |  | 0.0521 | 0.0647 | 0.0616 | 0.0658 | 
H29P | 0.0533 | 0.0877 |  | 0.0589 |  | 0.0716 | 0.0485 | 0.0614 |  | 0.0651 | 0.0584 | 0.0505 | 0.0733 | 0.063 | 0.0452 |  | 0.0529 | 
